Assay results taken from PubChem BioAssay AID1508623 (National Center for Advancing Translational Sciences (NCATS), 2021).
Screen size: about 48,000 compounds; about 450 (0.94%) were called active. Inconclusive results (about 19%) are left out. The call rests on the fitted dose curve; in most records, active means well fitted inhibition curve with a large enough effect; inconclusive means small, poorly fitted or top-dose-only effect; inactive means no such curve, though single readings can be large or run the other way. Some of the results follow.

Assay: Primary qHTS for Identification of Small Molecule Inhibitors of Huntingtin Promoter Activity; further: nearly all actives have a fitted effect of over 50% in size
Details: HEK293 HTT promoter firefly luciferase reporter (activity 0% = vehicle and -100% = no light), 24 h; series mostly up to 57.5 µM; activity change, negative = inhibition: at the top concentration
Method in brief: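 HEK293 Fluc reporter, 2,500 cells/well, 24 h pre-culture; cpds up to 57.5 uM final, 24 h 37 degrees C; Dual-Glo, 10 min RT; normalized vehicle = 0%, zero RLU = -100%.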

Activity change, negative = inhibition, inactive:
O=C(Nc1ccc(Br)cc1)N1CCC(CN2CCCC2)CC1 -13%
COc1ccc(NC(=O)CSc2c3c(nc4ccc(Cl)cc24)CCCC3)cc1Cl -31.5%
CCOc1ccc(C2C(C(=O)Nc3ccc(OC)cc3)=C(C)Nc3nc(SCc4ccc(Cl)cc4)nn32)cc1 (stereo not given) -7.5%
Cc1ccccc1NC(=O)CS(=O)(=O)c1cccc2nsnc12 -18.7%
Cc1c(Cl)cccc1NC(=O)c1ccc(NC(=O)N2CCSc3ncccc32)cc1 -2.78%
CCCc1ccc(OCC(=O)Nc2scc(-c3cccs3)c2C(=O)OC)cc1 -19.6%
NC(=O)NC1NC(=O)NC1=O (stereo not given) 8.62%
Cc1ccc(CNC(=O)c2sc3nc4n(c(=O)c3c2C)CCCC4)cc1 29.6%
COc1cc(CNC(=O)CSCc2nc3cccnc3n2C2CCCCC2)cc(OC)c1OC -0.796%
CC(=O)Nc1ccc(OCCOCCOc2ccc(NC(C)=O)cc2)cc1 -8.7%
CCOc1cc(C#N)c(NC(=O)c2cccc(S(=O)(=O)N3CCOCC3)c2)cc1OCC 1.43%
O=C(CCNS(=O)(=O)c1ccc2c(c1)CCCC(=O)N2)NCc1ccccc1Cl -19.1%
CCC(=O)N1CCc2cc(CNC(=O)Nc3ccccc3Cl)ccc21 -10.3%
COc1cccc(NC(=O)CN(C)S(=O)(=O)c2cccs2)c1 29.3%
CC1CCN(C(=O)CSc2nc(-c3ccc(C(C)C)cc3)no2)CC1 -10.1%
CC(C(=O)NCc1ccccc1)N1Cc2ccccc2C1=O (stereo not given) -12%
O=C(Nc1ccc([N+](=O)[O-])cc1)Nc1ccc([N+](=O)[O-])cc1 -2.99%
CCCS(=O)(=O)N1CC(=O)N(c2ccccc2F)C(C)(C(=O)NC2CCCCCC2)C1 (stereo not given) 0.259%
COc1ccc(CCNC(=O)c2cc(C)nc3c2c(C)nn3-c2ccccc2)cc1OC -16.3%
Cn1c(CNC(=O)CSc2n[nH]c(-c3ccccc3)n2)nc2ccccc21 3.9%
CC(C)(C)C1CCc2c(sc(NC(=O)Cn3nnc(-c4cccc(C(F)(F)F)c4)n3)c2C#N)C1 (stereo not given) -18.8%
CCCCCOC(=O)CSc1nc2sc3c(c2c(=O)n1Cc1ccccc1)CC(C)(C)OC3 -11.6%
CCCCc1nn2c(=O)cc(COC(=O)c3ccc(NC(=O)c4cccs4)cc3)nc2s1 -23.1%
CCN1CCSc2ccc(C(=O)NCc3cccc(F)c3)cc21 -13.7%
O=C(Cn1c(=O)n(-c2ccc(Cl)cc2)c(=O)c2c3c(sc21)CCC3)c1ccc(F)cc1 2.79%
COc1ccccc1Cn1c(CNS(=O)(=O)c2ccc3c(c2)CCCC3)nc2cccnc21 -19.7%
COc1ccccc1N1CCN(C(=O)CSc2nc3ccccc3nc2Cc2ccc(F)cc2)CC1 1.31%
Cc1csc2nc(COc3ccc(NC(=O)COc4ccccc4F)cc3)cc(=O)n12 7.35%
CCC(=O)N1c2ccccc2CC1C(=O)NCCN1CCN(c2cccc(C)c2C)CC1 (stereo not given) -14.6%
Cc1ccc(-c2nc3ccccc3o2)cc1NC(=O)c1cccc2c(Cl)cccc12 -6.44%
Cc1cccc(Nc2nc(-c3ccccc3)c3cc(C)ccc3n2)c1 -18.6%
Cc1ccccc1NCc1cccn1-c1nnc(N2CCOCC2)s1 -22.1%
Cc1ccc(NC(=O)CSc2nnc3[nH]c(=O)cc(C)n23)cc1Cl -2.74%
Cc1sc2c(c1C)c(=O)n(-c1ccccc1)c(=O)n2CC(=O)c1ccc(Cl)cc1 -16%
COc1cccc(CNC(=O)CCc2nnc3n(CC(C)C)c(=O)c4ccccc4n23)c1 -7.3%
CC(C)CC(=O)N1CC(=O)Nc2ccc(F)cc2C1c1ccccc1 (stereo not given) -8.32%
CCC(Sc1nc2c(sc3ccccc32)c(=O)n1CCCC(=O)NC1CCCC1)C(=O)Nc1cccc(OC)c1 (stereo not given) -24.8%
NCCCC(N)(C(=O)O)C(F)F (stereo not given)
CC(C)OCCCn1c(SCC(=O)Nc2ccc(F)cc2)nc2c(sc3ccccc32)c1=O -14.3%
Cc1ccc(OCCSc2nc3ccc(NC(=O)c4ccc5c(c4)OCO5)cc3s2)cc1 -2.91%
O=C(Nc1ccc(F)cc1)C1CCN(c2nc3ccccc3n3cccc23)CC1 -0.156%
COc1ccc(NC(=O)c2cc3c(=O)n(C)c4ccccc4c3s2)cc1Cl -4.99%
CCOc1ccc(-c2cc3c(=O)n(CC(=O)NCc4ccc(OC)cc4)ccn3n2)cc1 82.1%
CCCc1ccc(OC(=O)CSc2nnc(-c3cccs3)o2)cc1 -4.8%
CCS(=O)(=O)N1CCc2cc(C(=O)Nc3cccc(C)c3C)ccc21 23.6%
CSc1ccc(CCNC(=O)CCn2c(=O)c3cccn3c3cccnc32)cc1 -0.476%
Cc1cccc(NC(=O)CSc2nnc(N)s2)c1 6.08%
O=C(NC1(C(F)(F)F)NC(=O)N(CCc2ccccc2)C1=O)c1ccccc1Cl (stereo not given) -7.18%
Cc1nc(-n2nc(C)c(Cc3ccccc3Cl)c2C)sc1C(=O)N1CCC(C)CC1 -0.881%
O=C(CCn1cccn1)NCc1ccc(Cl)cc1 -1.5%
CCOC(=O)C(CC)Sc1ncnc2sc3c(c12)CCCC3 (stereo not given) -20.2%
Cc1cccc(-n2ncc(C(=O)N3CCc4ccccc4C3)c2C2CCN(C(=O)OC(C)(C)C)CC2)c1 0.16%
Cc1nn2c(=O)cc(COC(=O)c3cccc(NC(=O)COc4ccc(C)c(C)c4)c3)nc2s1 -4.49%
Cc1c(-c2nsc(NC(=O)c3cccs3)n2)nnn1-c1ccc(Cl)cc1 22.3%
N#Cc1c[nH]n2c(NC3CCCCC3)c(-c3ccccc3F)nc12 -11.4%
CCSc1ncc(Cl)c(C(=O)N(Cc2ccccc2Cl)C2CCS(=O)(=O)C2)n1 (stereo not given) -9.89%
O=C(C1CCN(S(=O)(=O)c2cccs2)CC1)N1CCN(c2cccc(Cl)c2)CC1 -4.96%
CSc1ncc2c(n1)-c1ccccc1N(Cc1ccc(F)cc1)S2(=O)=O -17%
COC(=O)c1nnn(CC(=O)Nc2cc(F)ccc2F)c1C(=O)OC -1.78%
CCC1Oc2ccc(C)cc2N(CC(=O)NCCc2ccccc2)C1=O (stereo not given) -17.1%
CCOC(=O)c1cnc2ccc(OC(F)(F)F)cc2c1Nc1ccccc1C(=O)O -7.54%
Cc1ccc(NC(=O)CCCN2C(=O)COc3ccc(C)cc32)c(Cl)c1 5.64%
COc1cccc(/C=C/c2nc(C#N)c(N3CCCCCC3)o2)c1 -9.67%
CCOC(=O)c1cnn2c(C(F)(F)F)cc(-c3ccc(Br)cc3)nc12 -6.97%
O=C(Nc1ccc(OCc2cc(=O)n3c4c(sc3n2)CCCC4)cc1)c1ccc(F)cc1 -19.6%
